Assay results taken from article PMC4265154, “A reversible Renilla luciferase protein complementation assay for rapid identification of protein–protein interactions reveals the existence of an interaction network involved in xyloglucan biosynthesis in the plant Golgi apparatus” (Journal of Experimental Botany, 2014).
No constants are given. Whether binding was seen depends on the method and setting. For part of these data: Binding seen in cells or lysates may run through a third protein. Tags and fused reporters may be left off the sequences shown.

Key:
[1] = target: GALACTURONO…7 (GAUT7) fused to hRluc fragment [F1] or [F2] (Arabidopsis thaliana) (UniProt Q9ZVI7); experiment: split reporter; Rluc-PCA: proteins with C-terminal hRluc[F1]-HA and hRluc[F2]-FLAG co-expressed with p19 in N. benthamiana leaves for 72 h (Agrobacterium OD600 0.2 each, p19 0.05); pooled leaf discs macerated in 0.5 M NaCl, 0.1 M potassium phosphate pH 7.4, 1 mM EDTA, 0.02% BSA, protease inhibitors; 10 uM coelenterazine-h, luminescence 30 s; compared with p19 alone
[2] = target: T1, ARABINAN …1 (ARAD1) fused to hRluc fragment [F1] or [F2] (Arabidopsis thaliana) (UniProt Q6DBG8); experiment: as above
T1 sequence: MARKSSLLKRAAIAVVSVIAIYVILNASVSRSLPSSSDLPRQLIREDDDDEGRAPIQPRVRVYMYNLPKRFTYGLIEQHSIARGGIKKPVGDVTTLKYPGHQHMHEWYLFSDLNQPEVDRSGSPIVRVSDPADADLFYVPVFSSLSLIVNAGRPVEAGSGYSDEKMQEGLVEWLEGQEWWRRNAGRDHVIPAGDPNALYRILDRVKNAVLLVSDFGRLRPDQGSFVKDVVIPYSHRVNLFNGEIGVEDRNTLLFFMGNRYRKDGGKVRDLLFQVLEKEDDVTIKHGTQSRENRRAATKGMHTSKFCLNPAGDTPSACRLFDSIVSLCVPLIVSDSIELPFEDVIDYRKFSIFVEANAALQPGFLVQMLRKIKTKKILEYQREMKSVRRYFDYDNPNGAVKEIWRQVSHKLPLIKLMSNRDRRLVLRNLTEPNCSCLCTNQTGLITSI

[3] = target: T2, IRREGULAR XYLEM9 (IRX9) fused to hRluc fragment [F1] or [F2] (Arabidopsis thaliana) (UniProt Q9ZQC6); experiment: as above
T2 sequence: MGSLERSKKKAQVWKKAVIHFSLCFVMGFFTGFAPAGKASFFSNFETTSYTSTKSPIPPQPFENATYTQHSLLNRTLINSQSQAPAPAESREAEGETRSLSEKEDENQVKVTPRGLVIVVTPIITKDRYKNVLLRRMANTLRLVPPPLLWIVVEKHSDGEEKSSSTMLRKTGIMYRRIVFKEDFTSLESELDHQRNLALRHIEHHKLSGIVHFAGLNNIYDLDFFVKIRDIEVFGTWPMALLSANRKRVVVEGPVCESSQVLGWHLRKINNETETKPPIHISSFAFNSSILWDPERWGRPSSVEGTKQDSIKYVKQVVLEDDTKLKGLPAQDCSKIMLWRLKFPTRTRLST

[4] = target: T3, XXT2 fused to TF–Cub or NubG (split-ubiquitin assay) (Arabidopsis thaliana) (UniProt O22775); experiment: two-hybrid; split-ubiquitin assay (DUALmembrane) in yeast NMY51: TF–Cub (bait) and NubG (prey) at the N-termini; growth on SD-His-Leu-Trp-Ade scored as interaction, X-gal overlay for β-galactosidase
T3 sequence: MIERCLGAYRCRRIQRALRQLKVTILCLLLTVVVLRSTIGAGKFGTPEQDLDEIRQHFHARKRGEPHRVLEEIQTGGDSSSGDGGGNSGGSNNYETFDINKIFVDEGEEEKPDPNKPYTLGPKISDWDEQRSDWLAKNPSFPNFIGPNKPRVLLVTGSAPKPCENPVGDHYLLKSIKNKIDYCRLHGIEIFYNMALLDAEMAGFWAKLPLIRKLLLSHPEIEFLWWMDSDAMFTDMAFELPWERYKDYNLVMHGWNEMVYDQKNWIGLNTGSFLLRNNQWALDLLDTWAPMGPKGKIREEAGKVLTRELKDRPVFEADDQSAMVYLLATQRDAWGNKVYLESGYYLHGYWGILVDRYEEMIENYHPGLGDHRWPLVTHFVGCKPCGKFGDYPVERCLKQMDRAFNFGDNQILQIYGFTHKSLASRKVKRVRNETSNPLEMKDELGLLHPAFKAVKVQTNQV

[5] = target: T4, FUT1 fused to TF–Cub or NubG (split-ubiquitin assay) (Arabidopsis thaliana) (UniProt Q9SWH5); experiment: as above
T4 sequence: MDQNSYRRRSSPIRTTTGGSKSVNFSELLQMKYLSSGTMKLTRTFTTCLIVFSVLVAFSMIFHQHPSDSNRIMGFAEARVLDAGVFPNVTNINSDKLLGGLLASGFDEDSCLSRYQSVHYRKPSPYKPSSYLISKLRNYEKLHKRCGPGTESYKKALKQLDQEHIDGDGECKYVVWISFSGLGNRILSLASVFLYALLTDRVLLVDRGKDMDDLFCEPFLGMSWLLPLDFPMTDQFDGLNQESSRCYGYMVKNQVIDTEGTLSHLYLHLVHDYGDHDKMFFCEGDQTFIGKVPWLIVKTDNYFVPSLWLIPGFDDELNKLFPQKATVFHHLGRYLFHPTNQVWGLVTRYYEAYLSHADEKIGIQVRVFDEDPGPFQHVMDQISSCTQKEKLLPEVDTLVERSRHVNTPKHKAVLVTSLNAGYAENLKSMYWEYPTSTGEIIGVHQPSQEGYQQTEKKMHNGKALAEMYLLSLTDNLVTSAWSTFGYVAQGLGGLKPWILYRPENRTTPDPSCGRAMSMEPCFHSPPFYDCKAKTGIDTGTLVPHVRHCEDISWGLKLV

[6] = target: T5, MUR3 fused to TF–Cub or NubG (split-ubiquitin assay) (Arabidopsis thaliana) (UniProt Q7XJ98); experiment: as above
T5 sequence: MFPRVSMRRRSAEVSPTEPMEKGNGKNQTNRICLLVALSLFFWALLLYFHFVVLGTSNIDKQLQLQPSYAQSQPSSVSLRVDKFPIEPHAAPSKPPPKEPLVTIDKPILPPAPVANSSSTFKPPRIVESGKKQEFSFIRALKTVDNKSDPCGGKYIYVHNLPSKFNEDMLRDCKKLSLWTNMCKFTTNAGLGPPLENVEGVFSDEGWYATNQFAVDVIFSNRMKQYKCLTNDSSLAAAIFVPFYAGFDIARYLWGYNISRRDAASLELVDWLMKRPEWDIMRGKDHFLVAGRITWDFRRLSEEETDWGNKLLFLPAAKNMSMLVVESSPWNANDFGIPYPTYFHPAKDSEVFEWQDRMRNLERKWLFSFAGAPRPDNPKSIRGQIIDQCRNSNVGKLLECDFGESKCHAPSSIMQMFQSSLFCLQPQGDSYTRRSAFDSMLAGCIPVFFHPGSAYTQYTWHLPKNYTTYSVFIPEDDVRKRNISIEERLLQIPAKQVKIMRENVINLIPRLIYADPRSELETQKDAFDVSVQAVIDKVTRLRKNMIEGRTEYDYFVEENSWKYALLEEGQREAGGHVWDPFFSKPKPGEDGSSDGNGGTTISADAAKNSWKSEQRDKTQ

Measured: binding

B1: GALACTURONOSYLTRANSFERASE7 (GAUT7) fused to hRluc fragment [F1] or [F2] (natural protein, Arabidopsis thaliana, UniProt Q9ZVI7 1-619, looked up)
chain: MKGGGGGGGGGGGGKRRWKVLVIGVLVLVILSMLVPLAFLLGLHNGFHSPGFVTVQPASSFESFTRINATKHTQRDVSERVDEVLQKINPVLPKKSDINVGSRDVNATSGTDSKKRGLPVSPTVVANPSPANKTKSEASYTGVQRKIVSGDETWRTCEVKYGSYCLWREENKEPMKDAKVKQMKDQLFVARAYYPSIAKMPSQSKLTRDMKQNIQEFERILSESSQDADLPPQVDKKLQKMEAVIAKAKSFPVDCNNVDKKLRQILDLTEDEASFHMKQSVFLYQLAVQTMPKSLHCLSMRLTVEHFKSDSLEDPISEKFSDPSLLHFVIISDNILASSVVINSTVVHARDSKNFVFHVLTDEQNYFAMKQWFIRNPCKQSTVQVLNIEKLELDDSDMKLSLSAEFRVSFPSGDLLASQQNRTHYLSLFSQSHYLLPKLFDKLEKVVILDDDVVVQRDLSPLWDLDMEGKVNGAVKSCTVRLGQLRSLKRGNFDTNACLWMSGLNVVDLARWRALGVSETYQKYYKEMSSGDESSEAIALQASLLTFQDQVYALDDKWALSGLGYDYYINAQAIKNAAILHYNGNMKPWLELGIPNYKNYWRRHLSREDRFLSDCNVNP
notes: Made in two forms, one with [F1]-HA and one with [F2]-FLAG; a chain carries one of the two; also called GAUT7-[F1]; GAUT7-[F2]; source: N. benthamiana leaves, transient expression (A. tumefaciens GV3101, with p19), in crude leaf macerate; not shown: hRluc[F1]; (Renilla luciferase residues 1-110) with HA, C-terminal, kept; hRluc[F2]; (Renilla luciferase residues 111-310) with FLAG, C-terminal, kept
no binding: [1] | [2] | [3]

B2: CELLULOSE-SYNTHASE LIKE C4 (CSLC4) fused to TF–Cub or NubG (split-ubiquitin assay) (protein, UniProt Q9LJP4 1-673)
chain: MAPNSVAVTMEKPDNFSLLEINGSDPSSFPDKRKSISPKQFSWFLLLKAHRLISCLSWLVSSVKKRIAFSAKNINEEEDPKSRGKQMYRFIKACLVISIIALSIEIVAHFKKWNLDLINRPSWEVYGLVEWSYMAWLSFRSDYIAPLVISLSRFCTVLFLIQSLDRLVLCLGCFWIKFKKIEPKLTEESIDLEDPSSFPMVLIQIPMCNEREVYEQSIGAASQLDWPKDRILIQVLDDSDDPNLQLLIKEEVSVWAEKGVNIIYRHRLIRTGYKAGNLKSAMTCDYVKDYEFVTIFDADFTPNPDFLKKTVPHFKGNPELGLVQARWSFVNKDENLLTRLQNINLCFHFEVEQQVNGVFLNFFGFNGTAGVWRIKALEESGGWLERTTVEDMDIAVRAHLNGWKFIYLNDVEVTCELPESYEAYKKQQHRWHSGPMQLFRLCLPSIIKSKISVWKKANLIFLFFLLRKLILPFYSFTLFCIILPLTMFIPEAELPLWIICYVPIFISLLNILPSPKSFPFLVPYLLFENTMSITKFNAMISGLFQFGSAYEWVVTKKTGRSSESDLLAFAEKEEKLHRRNSESGLELLSKLKEQETNLVGQETVKKSLGGLMRPKNKKKTNMVFKKELGLAFLLLTAAARSFLSAHGLHFYFLLFQGLSFLVVGLDLIGEQIS
no binding: [4] | [5] | [6]
